Measurements as given in PMC12434519 (ACS Medicinal Chemistry Letters, 2025).
Read-outs that look alike come from different tables or passages of the source.

Biological target: SARS-CoV-2 NSP14 (Severe acute respiratory syndrome coronavirus 2, UniProt P0DTD1)
Experiment: biochemical
[1] = LUM % inhibition, read-out: SARS-CoV-2 NSP14 inhibition: IC50
[2] = LUM % inhibition, read-out: SARS-CoV-2 NSP14 inhibition: Maximum response
[3] = fit of concentration-response curve
[4] = Hill slope of the concentration-response fit
[5] = maximum response, LUM % inhibition, read-out: SARS-CoV-2 NSP14 inhibition: Maximum response (%)
[6] = read-out: SARS-CoV-2 NSP14 inhibition: IC50
[7] = TDI-015051 series, retrospective VS set, biochemical MTase assay, read-out: Merged IC50

SMILES | IC50 [1] | Emax [2] | SARS-CoV-2 NSP14 inhibition: Hill slope [3] | further results
CN(c1ccccc1)S(=O)(=O)c1cccc(NC(=O)Cn2cc(Br)ccc2=O)c1 [RU-0833923] | > 125 µM | 11.1% | 20.2 | –
COc1cccn2ncc(C(=O)NC[C@@H]3C[C@H]3CNC(=O)c3cc(C)c(F)c(C)c3)c12 [RU-0833683] | – | – | – | SARS-CoV-2 NSP14 inhibition: Hill slope [4]: 16.6; Emax [5]: 2.96%; IC50 [6]: > 62.5 µM
COc1ccccc1CNC(=O)c1cccc(S(=O)(=O)N2CCc3ccccc3C2)c1 [TDI-013767, COc1ccccc1CNC(=O)c1cccc(S(=O)(=O)N2CCc3ccccc3C2)c1] | – | – | – | IC50 [7]: 0.824 µM
O=C(NC[C@H]1C[C@@H]1CNC(=O)c1cccc2cc[nH]c12)c1ccc2cn[nH]c2c1 [RU-0833671] | – | – | – | SARS-CoV-2 NSP14 inhibition: Hill slope [4]: 0.653; Emax [5]: 18.1%; IC50 [6]: > 62.5 µM
Cc1cc(CC(=O)N2CCCC(O)(CCNC(=O)c3c(C)ccc(C)c3C)C2)ccc1O (stereo not shown) [RU-0834191] | > 125 µM | 14.9% | 33.8 | –
COc1ccc(NC(=O)COc2ccc(N(C)S(=O)(=O)c3ccc(F)cc3)cc2)cc1Cl [RU-0833920] | > 125 µM | 11.7% | 19.3 | –
O=C(NC[C@@H]1CCC[C@H](CNC(=O)C2CCCc3ccnn32)C1)c1ccc2[nH]ncc2c1 (stereo partly shown) [RU-0834156] | > 125 µM | 12.9% | 23.9 | –
Cn1nc(C(=O)N2CC3CCC(CNC(=O)c4n[nH]c5ccccc45)C3C2)cc1CO (stereo not shown) [RU-0834135] | > 125 µM | 11% | 76.2 | –
CC(NC(=O)c1cn(CCNC(=O)c2ccc(O)c(F)c2)cn1)c1ccccc1F (stereo not shown) [RU-0834138] | > 125 µM | 9.69% | -376 | –
CC1(CNC(=O)c2ncn3ccccc23)CCC(NC(=O)c2ccn3cncc3c2)C1 (stereo not shown) [RU-0834148] | > 125 µM | 10.2% | 15.4 | –
Cn1ccn2ncc(C(=O)NCc3ccc(CNC(=O)c4ccc(O)cc4Cl)cc3)c12 [RU-0834114] | 10.6 µM | 50.9% | 1.09 | –
O=C(CNC(=O)Cc1ccc(O)cc1)NCC(c1ccccc1Cl)c1c[nH]c2ccccc12 (stereo not shown) [RU-0833891] | > 125 µM | 12.1% | 20.8 | –
Cc1ccc(S(=O)(=O)N(C)CC(=O)Nc2ccnn2Cc2ccc(Cl)cc2)cc1C [RU-0833924] | > 125 µM | 14.4% | 19.5 | –
O=C(NCc1nnc2ccccn12)c1cccc(S(=O)(=O)NCc2ccccc2)c1 [RU-0833665] | – | – | – | SARS-CoV-2 NSP14 inhibition: Hill slope [4]: 2.59; Emax [5]: 0.512%; IC50 [6]: > 62.5 µM
Cc1cc(C(=O)NCc2ncc(C(=O)NCc3c(F)cccc3F)cn2)ccc1O [RU-0834132] | 23.9 µM | 34% | 0.827 | –
Cc1ccc(C)c(C(=O)Nc2cccc(CNC(=O)c3ccc4[nH]ncc4c3)c2)n1 [RU-0834108] | 23.7 µM | 54% | 0.909 | –
Cc1ccc(F)c(C(=O)NCCc2ccc(CNC(=O)C3CCC(O)CC3)cc2)c1F (stereo not shown) [RU-0834133] | > 125 µM | 20.2% | 1.19 | –
Cc1cc(C(=O)N[C@@H]2CCC[C@H](CNC(=O)c3cnn4c3CCCC4)C2)cc(C)c1O [RU-0834159] | 16.5 µM | 61.1% | 0.966 | –
O=C(COc1ncnc2ccccc12)Nc1cccc(S(=O)(=O)N2CCCCCC2)c1 [RU-0833896] | > 125 µM | 8.44% | 112 | –

SMILES | IC50 [1] | Emax [2] | SARS-CoV-2 NSP14 inhibition: Hill slope [3] | further results
Cc1cc(C(=O)NC2CC(O)(CNC(=O)c3ncn4ccccc34)C2)cc2cn[nH]c12 (stereo not shown) [RU-0834183] | > 125 µM | 11.1% | 42.8 | –
Cc1cccc(C(O)C(=O)NC[C@H]2CCC[C@@H](NC(=O)c3cc(C)c4[nH]ncc4c3)C2)c1 (stereo partly shown) [RU-0834167] | > 125 µM | 29.4% | 0.446 | –
Cc1cc(C(=O)N[C@@H]2CC[C@H](CNC(=O)c3cnn4ccn(C)c34)C2)ccc1O [RU-0834160] | > 125 µM | 17% | 1.6 | –
Cc1c(S(=O)(=O)N2CCC(C)CC2)cc(C(=O)NCc2cccnc2N2CCCC2)n1C [TDI-013598, Cc1c(S(=O)(=O)N2CCC(C)CC2)cc(C(=O)NCc2cccnc2N2CCCC2)n1C] | – | – | – | IC50 (TDI-015051 series, retrospective VS set, biochemical MTase assay, read-out: Merged pIC50 (converted)): 0.0209 µM
CCc1ccc(C)c(C(=O)NCC2COC(CNC(=O)c3cc(C)c4[nH]ncc4c3)C2)c1 (stereo not shown) [RU-0834100] | > 125 µM | 15.4% | 1.18 | –
Cc1cccc(F)c1CC(=O)NCC1CC(CNC(=O)c2ccc3c(c2)COC3)CO1 (stereo not shown) [RU-0834125] | > 125 µM | 14.7% | 14.5 | –
COc1ccc(Oc2cc(CNC(=O)N[C@@H](C)c3c(C)nn(C)c3C)ccn2)cc1 [RU-0833687] | – | – | – | SARS-CoV-2 NSP14 inhibition: Hill slope [4]: 1.27; Emax [5]: 1.2%; IC50 [6]: > 62.5 µM
Cc1cc(C(=O)NCC2(C)CCC(NC(=O)c3ncc4ccccn34)C2)cc(C)c1O (stereo not shown) [RU-0834101] | 12.3 µM | 29.7% | 1.12 | –
Cc1nc2ncnn2c(C)c1CC(=O)NCc1ccc(N2CCCC2=O)cc1 [RU-0833627] | – | – | – | SARS-CoV-2 NSP14 inhibition: Hill slope [4]: 196; Emax [5]: -0.927%; IC50 [6]: > 62.5 µM
Cc1nn(C)c(C)c1S(=O)(=O)Nc1cccc(CCc2nc3ccccc3n2C)c1 [RU-0381274] | – | – | – | SARS-CoV-2 NSP14 inhibition: Hill slope [4]: 35.7; Emax [5]: 15.8%; IC50 [6]: > 125 µM
Cc1cccc(C(CCO)NC(=O)NC(C)Cn2ncc3ccccc3c2=O)c1 (stereo not shown) [RU-0833921] | > 125 µM | 11.6% | 0.162 | –
CCn1c(C(=O)NCc2cnn3ccccc23)cc(S(=O)(=O)N2CCc3ccccc3C2)c1C [TDI-013662, CCn1c(C(=O)NCc2cnn3ccccc23)cc(S(=O)(=O)N2CCc3ccccc3C2)c1C] | – | – | – | IC50 [7]: 0.0802 µM
Cn1cc(N2CC(C(=O)NCCc3noc4ccccc34)CC2=O)cn1 (stereo not shown) [RU-0833925] | > 125 µM | 19.2% | 1.26 | –
Cc1cc(CC(=O)N2CCOCC(CNC(=O)c3n[nH]c4ccccc34)C2)ccc1O (stereo not shown) [RU-0834127] | > 125 µM | 13.7% | 46 | –
CCN(CC)C(=O)c1cccc(NC(=O)CCCn2c(=O)oc3ccccc32)c1 [RU-0833641] | – | – | – | SARS-CoV-2 NSP14 inhibition: Hill slope [4]: 107; Emax [5]: 1.02%; IC50 [6]: > 62.5 µM
COc1ccccc1CNC(=O)c1cc(S(=O)(=O)N2CCc3ccccc3C2)c2n1CCC2 [TDI-013711, COc1ccccc1CNC(=O)c1cc(S(=O)(=O)N2CCc3ccccc3C2)c2n1CCC2] | – | – | – | IC50 [7]: 0.0683 µM
Cc1cc(C(=O)N2CCC3(CC2)CC3CNC(=O)c2n[nH]c3cccnc23)cc2cn[nH]c12 (stereo not shown) [RU-0834093] | > 125 µM | 40.9% | 0.617 | –
O=C(NC[C@]1(O)C[C@H](NC(=O)c2cccc3cc(O)ccc23)C1)c1ccc(F)cc1 [RU-0833680] | – | – | – | SARS-CoV-2 NSP14 inhibition: Hill slope [4]: 0.0871; Emax [5]: 0.636%; IC50 [6]: > 62.5 µM
Cc1c(O)cccc1C(=O)NC[C@]1(O)CCN(C(=O)Cc2ccc3[nH]ncc3c2)C1 [RU-0833675] | – | – | – | SARS-CoV-2 NSP14 inhibition: Hill slope [4]: 13.5; Emax [5]: 3.8%; IC50 [6]: > 62.5 µM
